Results as given in PubChem BioAssay AID306 (DTP/NCI, 2004).
Toxic doses and inconclusive results are not listed. For part of its entries the source gives two or more results. This list holds those alone. The source may hold further records. Results that share an entry are repeated measurements across runs, samples, wells, individuals or studies.

Test system: BDF1 mice, L1210 Methyl-GAG-resistant leukemia, survival T/C
Assay: NCI In Vivo Anticancer Drug Screen. Data for tumor model L1210 Leukemia resistant to Methyl-GAG; NSC 32946 (subcutaneous) in B6D2F1 (BDF1) mice
Conditions: endpoint: mean survival time, schedule: Q01DX Z (ip), higher = longer survival
Experimental: The antitumor activity of compounds was measured in mice bearing transplantable tumors. Survival or tumor size were measured and the results are expressed as the measurement made in the treated group (T) divided by the measurement made in the vehicle treated control group (C). The tumor model used in this assay is L1210 Leukemia resistant to Methyl-GAG; NSC 32946 (subcutaneous) in B6D2F1 (BDF1) mice

Structure (SMILES): Nc1nc2n[nH]nc2c(=O)[nH]1
- T/C (dose: 200.0 mg/kg/injection, vehicle: other): 119 % of control and 182 % of control

Structure (SMILES): Nc1nc(N)c2nc(CNc3ccc(C(=O)NC(CCC(=O)O)C(=O)O)cc3)cnc2n1 (centres undefined)
- T/C (dose: 8.0 micrograms/kg/injection, vehicle: alkali diluted with saline): 102 % of control and 158 % of control

Structure (SMILES): NC(=O)N(CCCl)N=O
- T/C (dose: 4.0 mg/kg/injection, vehicle: carboxymethylcellulose (CMC)): 94 % of control and 164 % of control
- T/C (dose: 8.0 mg/kg/injection, vehicle: carboxymethylcellulose (CMC)): 116 % of control and 191 % of control
